Reference: PMC12820563
The other results are listed elsewhere or left out. The list includes weakly bound sequences.

target: T1, MBP-FoxP3dN (UniProt Q99JB6); experiment: PD-seq (MBP pull-down with sequencing); conditions: 20 mM Tris-HCl pH 7.5, 100 mM NaCl, 1.5 mM MgCl2, 0.4 uM protein, 0.1 uM dsDNA library, 30 min, room temperature, amylose pull-down; high values mean tight binding; double strand, one strand shown
T1 sequence: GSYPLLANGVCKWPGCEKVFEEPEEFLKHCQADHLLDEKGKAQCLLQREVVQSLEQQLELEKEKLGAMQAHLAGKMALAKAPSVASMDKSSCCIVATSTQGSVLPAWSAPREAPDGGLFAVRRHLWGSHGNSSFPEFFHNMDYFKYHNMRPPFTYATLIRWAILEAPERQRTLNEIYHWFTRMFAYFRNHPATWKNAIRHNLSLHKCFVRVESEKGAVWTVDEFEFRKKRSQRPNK

Sequence | binding signal (RPM ratio (pull-down/input))
GATGATTGTTCTCCCAGCTGATGAATTTCATGTATCGAGTAAACAAATTTTCCTAATCTTTCTGTTCAAGCGCCATCTAC | 1.05
GATGATTGTTCTCCCAGCTGATGAATTGAACTTATCGAGTAAACAAATTTTCCTAATCTTTCTGTTCAAGCGCCATCTAC | 0.427
GATGATTGTTCTCCCAGCTGATGAATTAACTCCTTCGAGTAAACAAATTTTCCTAATCTTTCTGTTCAAGCGCCATCTAC | 0.269
GATGATTGTTCTCCCAGCTGATGAATTGAACAAATCGAGTAAACAAATTTTCCTAATCTTTCTGTTCAAGCGCCATCTAC | 0.246
GATGATTGTTCTCCCAGCTGATGAATTGAGCATATCGAGTAAACAAATTTTCCTAATCTTTCTGTTCAAGCGCCATCTAC | 2.11
GATGATTGTTCTCCCAGCTGATGAATTGGCATGCTCGAGTAAACAAATTTTCCTAATCTTTCTGTTCAAGCGCCATCTAC | 1.33
GATGATTGTTCTCCCAGCTGATGAATTCAAGTGGTCGAGTAAACAAATTTTCCTAATCTTTCTGTTCAAGCGCCATCTAC | 0.381
GATGATTGTTCTCCCAGCTGATGAATTTCGGACGTCGAGTAAACAAATTTTCCTAATCTTTCTGTTCAAGCGCCATCTAC | 0.276
GATGATTGTTCTCCCAGCTGATGAATTAACCACATCGAGTAAACAAATTTTCCTAATCTTTCTGTTCAAGCGCCATCTAC | 0.436
GATGATTGTTCTCCCAGCTGATGAATTATTGAACTCGAGTAAACAAATTTTCCTAATCTTTCTGTTCAAGCGCCATCTAC | 0.363
GATGATTGTTCTCCCAGCTGATGAATTTGTCCACTCGAGTAAACAAATTTTCCTAATCTTTCTGTTCAAGCGCCATCTAC | 2.44
GATGATTGTTCTCCCAGCTGATGAATTCACGAAGTCGAGTAAACAAATTTTCCTAATCTTTCTGTTCAAGCGCCATCTAC | 0.192
GATGATTGTTCTCCCAGCTGATGAATTTCAGAAGTCGAGTAAACAAATTTTCCTAATCTTTCTGTTCAAGCGCCATCTAC | 0.16
GATGATTGTTCTCCCAGCTGATGAATTCCAACCTTCGAGTAAACAAATTTTCCTAATCTTTCTGTTCAAGCGCCATCTAC | 0.236
GATGATTGTTCTCCCAGCTGATGAATTCTGAAGTTCGAGTAAACAAATTTTCCTAATCTTTCTGTTCAAGCGCCATCTAC | 0.292
GATGATTGTTCTCCCAGCTGATGAATTTAACGGCTCGAGTAAACAAATTTTCCTAATCTTTCTGTTCAAGCGCCATCTAC | 0.29
GATGATTGTTCTCCCAGCTGATGAATTTTGATTTTCGAGTAAACAAATTTTCCTAATCTTTCTGTTCAAGCGCCATCTAC | 1.81
GATGATTGTTCTCCCAGCTGATGAATTGCTTACTTCGAGTAAACAAATTTTCCTAATCTTTCTGTTCAAGCGCCATCTAC | 2.35
GATGATTGTTCTCCCAGCTGATGAATTCTTAAATTCGAGTAAACAAATTTTCCTAATCTTTCTGTTCAAGCGCCATCTAC | 0.242
GATGATTGTTCTCCCAGCTGATGAATTGTAGTAATCGAGTAAACAAATTTTCCTAATCTTTCTGTTCAAGCGCCATCTAC | 1.03

Sequence | binding signal (RPM ratio (pull-down/input))
GATGATTGTTCTCCCAGCTGATGAATTTAGTGTTTCGAGTAAACAAATTTTCCTAATCTTTCTGTTCAAGCGCCATCTAC | 3.04
GATGATTGTTCTCCCAGCTGATGAATTGTATAACTCGAGTAAACAAATTTTCCTAATCTTTCTGTTCAAGCGCCATCTAC | 0.812
GATGATTGTTCTCCCAGCTGATGAATTGAGATCTTCGAGTAAACAAATTTTCCTAATCTTTCTGTTCAAGCGCCATCTAC | 0.279
GATGATTGTTCTCCCAGCTGATGAATTTAGCACTTCGAGTAAACAAATTTTCCTAATCTTTCTGTTCAAGCGCCATCTAC | 1.13
GATGATTGTTCTCCCAGCTGATGAATTTGGGGGCTCGAGTAAACAAATTTTCCTAATCTTTCTGTTCAAGCGCCATCTAC | 0.566
GATGATTGTTCTCCCAGCTGATGAATTTGAAGCCTCGAGTAAACAAATTTTCCTAATCTTTCTGTTCAAGCGCCATCTAC | 0.46
GATGATTGTTCTCCCAGCTGATGAATTTTGCTGATCGAGTAAACAAATTTTCCTAATCTTTCTGTTCAAGCGCCATCTAC | 3.05
GATGATTGTTCTCCCAGCTGATGAATTTGCTAGCTCGAGTAAACAAATTTTCCTAATCTTTCTGTTCAAGCGCCATCTAC | 2.5
GATGATTGTTCTCCCAGCTGATGAATTGCAAAGCTCGAGTAAACAAATTTTCCTAATCTTTCTGTTCAAGCGCCATCTAC | 0.553
GATGATTGTTCTCCCAGCTGATGAATTAAAACTTTCGAGTAAACAAATTTTCCTAATCTTTCTGTTCAAGCGCCATCTAC | 0.401
GATGATTGTTCTCCCAGCTGATGAATTTATGAAGTCGAGTAAACAAATTTTCCTAATCTTTCTGTTCAAGCGCCATCTAC | 0.325
GATGATTGTTCTCCCAGCTGATGAATTACTAAAGTCGAGTAAACAAATTTTCCTAATCTTTCTGTTCAAGCGCCATCTAC | 0.271
GATGATTGTTCTCCCAGCTGATGAATTTTTAAAGTCGAGTAAACAAATTTTCCTAATCTTTCTGTTCAAGCGCCATCTAC | 0.193
GATGATTGTTCTCCCAGCTGATGAATTACGTTCCTCGAGTAAACAAATTTTCCTAATCTTTCTGTTCAAGCGCCATCTAC | 0.631
GATGATTGTTCTCCCAGCTGATGAATTGTTCTAATCGAGTAAACAAATTTTCCTAATCTTTCTGTTCAAGCGCCATCTAC | 0.47
GATGATTGTTCTCCCAGCTGATGAATTGCTGTACTCGAGTAAACAAATTTTCCTAATCTTTCTGTTCAAGCGCCATCTAC | 0.736
GATGATTGTTCTCCCAGCTGATGAATTGGATGAATCGAGTAAACAAATTTTCCTAATCTTTCTGTTCAAGCGCCATCTAC | 0.262
GATGATTGTTCTCCCAGCTGATGAATTTTAGATATCGAGTAAACAAATTTTCCTAATCTTTCTGTTCAAGCGCCATCTAC | 0.486
GATGATTGTTCTCCCAGCTGATGAATTTAAGGCATCGAGTAAACAAATTTTCCTAATCTTTCTGTTCAAGCGCCATCTAC | 0.732
GATGATTGTTCTCCCAGCTGATGAATTACTGACATCGAGTAAACAAATTTTCCTAATCTTTCTGTTCAAGCGCCATCTAC | 0.506
